Out of some 48,000 compounds screened, about 450 (0.94%) were called active. Inconclusive results (about 19%) are left out. Calls follow the shape of the dose curve; as a rule, active = well fitted inhibition curve with a large enough effect; inconclusive = small, poorly fitted or top-dose-only effect; inactive = no such curve, though single readings can be large or run the other way. This is one part of the list.
Assay: Primary qHTS for Identification of Small Molecule Inhibitors of Huntingtin Promoter Activity; also: nearly all actives have a fitted effect of over 50% in size
Conditions: HEK293 HTT promoter firefly luciferase reporter (activity 0% = vehicle and -100% = no light), 24 h; series mostly up to 57.5 µM; activity change, negative = inhibition: at the top concentration
Outline: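 HEK293 cells carrying firefly luciferase reporters were seeded at 2,500 per well in Opti-MEM and cultured for 24 h. They were then treated with compounds at up to 57.5 uM final for 24 h at 37 degrees C before Dual-Glo luminescence readout.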

Activity change, negative = inhibition, inactive:
CC(=O)N1CCc2c(sc3c2c(=O)n(Cc2ccccc2)c(=O)n3CC(=O)Nc2ccc(C)c(F)c2)C1 -24.1%, COc1ccc(CN2C(=O)C(NC(=O)c3ccccc3OC)(C(F)(F)F)N=C2c2ccccc2)cc1 (centres undefined) -26.2%, CCc1ccc(NC(=O)CCn2cnc3ccccc3c2=O)cc1 1.67%, COc1ccccc1CNc1nc(-c2ccco2)nn1S(=O)(=O)c1ccc(Cl)cc1 29.8%, COc1cc(OC)c(NC(=O)Cn2c(=O)cc(C(F)(F)F)c3c(C)nn(C)c32)cc1Cl -4.47%, COCCNC(=O)C(=O)Nc1c2c(nn1-c1ccccc1)CS(=O)(=O)C2 -3.89%, CCc1ccccc1NC(=O)c1cnn2c(C(F)(F)F)cc(-c3ccc(OC)c(OC)c3)nc12 -8.86%, COc1ccccc1OCc1ccc(C(=O)Nc2ccc(C)c(C)c2)o1 -2.7%, CCOC(=O)c1cnn(-c2cccc(F)c2)c1C1CCNCC1 -7.44%, Cc1cccc(NC(=O)Cn2nc(N3CCN(c4ccccc4)CC3)ccc2=O)c1C 1.96%, CCOc1ccc(CCNC(=O)Cn2nc(C)c3c(C)n(-c4ccccc4)nc3c2=O)cc1OCC -12.2%, CCOC(=O)c1c(C)sc(-c2c(-c3cc(C)ccc3C)[nH]c3c2c(=O)[nH]c(=O)n3C)c1O 9.57%, O=C(Nc1ccccc1C(=O)O)c1cccc(S(=O)(=O)N2CCCC2)c1 54.5%, CCCCN(CC)CCCNC(=O)c1cn(C)c2ccc(S(=O)(=O)N(C)C3CCCCC3)cc2c1=O -43% [at 11.5 µM], CCOc1cc(C(=O)NCc2ccc3c(c2)CCN3C(=O)CC)cc(OCC)c1OCC -4.68%, COc1cccc(CNC(=O)CCC(=O)N2CC3CCCN3c3ccccc32)c1 (centres undefined) -12.8%, Cc1ccccc1NC(=O)CN(C)S(=O)(=O)c1cccc2nsnc12 3.24%, CCC(Cn1nnc2ccccc2c1=O)NC(=O)Nc1cccc(Cl)c1 (centres undefined) -14.3%, COc1ccc(-c2[nH]ncc2C(=O)NCc2ccc(F)cc2)cc1 -20.6%, CCc1cccc(NC(=O)Cn2c(=O)n(CC3CCC(C(=O)NCCc4ccccc4)CC3)c(=O)c3ccccc32)c1 (centres undefined) -9.42%, COc1ccccc1CCNC(=O)Cc1c(C)c2c(cc(C)c3c(C)coc32)oc1=O -8.68%, O=C(NC1CC(=O)N(c2cccc(F)c2)C1)C1CCCCC1 (centres undefined) -7.44%, CN(C(=O)Nc1cn(C)c(=O)c2ccccc12)c1ccccc1 -15.7%, COc1ccc(Cl)cc1NC(=O)CN1c2ccccc2S(=O)(=O)c2ccccc21 -14%, O=C(CSC1=Nc2ccccc2N=C(c2ccc(F)cc2)C1)Nc1cc(F)ccc1F -0.5%, COCCCNC(=O)c1c(NC(=O)c2cc(=O)c3cc(C)c(C)cc3o2)sc2c1CCCC2 -0.212%, COc1ccccc1CCNC(=O)c1cc2ccccn2n1 31.9%, CCCN1C(=O)CN(C2CCCCCC2)C(=O)C1c1ccc(OCC)c(OC)c1 (centres undefined) -5.51%, CCCCNc1cc(NC2CCCCC2)c2c3c(onc13)-c1ccccc1C2=O -31.4%, Cc1ccc(SCC(=O)Nc2cccc(-c3nc4cc(Cl)ccc4o3)c2C)cc1 0%, CCCOc1ccc(CNC(=O)C2CCN(c3nc4ccccc4nc3C(F)(F)F)CC2)cc1 0.565%, N#CC[C@H](C1CCCC1)n1cc(-c2ncnc3[nH]ccc23)cn1 5.82%, CC1=C(C(=O)Nc2ccccc2Cl)C(c2cccs2)n2ncnc2N1 (centres undefined) -11.7%, O=C(CCC1N=C2c3ccccc3N=C(SCc3cccc(F)c3)N2C1=O)NC1CCCCC1 (centres undefined) -9.23%, Cc1cc(NS(=O)(=O)c2ccc(NC(=O)COc3c(C)cc(Br)cc3C)cc2)no1 -10.7%, Cc1c(CNC(C)c2ccccc2)c(C(=O)O)c(C)n1Cc1c(F)cccc1Cl (centres undefined) -17.4%, CCOC(=O)N1CCN([N+]([O-])=NOc2cc(ON=[N+]([O-])N3CCN(C(=O)OCC)CC3)c([N+](=O)[O-])cc2[N+](=O)[O-])CC1 -0.902%, COc1cc(-c2noc(-c3nnn(-c4ccc(Cl)cc4)c3C)n2)cc(OC)c1OC -6.51%, Cc1ccc(-n2nc(CO)c(C(=O)NCCc3ccccc3)n2)cc1C -11.2%, CCCc1nn(C)c2c(=O)[nH]c(-c3cc(S(=O)(=O)N4CCN(C)CC4)ccc3OCC)nc12, CCc1cccc(C)c1Nc1c(-c2ccc(N3CCOCC3)cc2)nc2ncccn12 -17.6%, CC(=O)c1ccc(NC(=O)C2CCCN(S(=O)(=O)c3cn(C)cn3)C2)cc1 (centres undefined) -15.6%, CCOC(=O)c1cc2c(=O)n3ccccc3nc2n(Cc2ccco2)c1=NC(=O)c1ccccc1OC -7.17%, Cc1ccc(NC(=O)C2CCCN(c3nnc(C)c4c(C)n(-c5ccccc5)nc34)C2)cc1Cl (centres undefined) -19.2%, Cc1c2cnn(CC(=O)Nc3ccc(F)cc3F)c(=O)c2c(C)n1Cc1cccc(Cl)c1 -13.6%, Cc1cc(C)cc(OCC(=O)Nc2cccc(-c3nc4ccccc4[nH]3)c2)c1 6.88%, O=C(Cn1c(=O)n(-c2ccc(F)cc2)c(=O)c2sccc21)Nc1cccc(C(F)(F)F)c1 -22.3%, COc1ccc(-n2nc3c(c2NC(=O)C(=O)N2CCN(C)CC2)CSC3)cc1 -7.89%, Cc1ccc(-n2nc3c(=O)n(C(C)C(=O)O)nc(C)c3c2C)cc1 (centres undefined) -14%, CCC(=O)N1CCc2cc(S(=O)(=O)CCC(=O)NCc3ccc(F)cc3)ccc21 -15%, CC(C)NC(=O)c1cc2c(Cl)nc3ccccc3c2s1 -6.23%, Cc1cc(O)c(C(=O)c2cnc3c(c2)COc2ccccc2-3)cc1Cl -18.4%, CCOc1ccc(NC(=O)Cn2cc(C(=O)c3ccc(C)c(C)c3)c(=O)c3cc(F)ccc32)cc1 -5.69%, Cc1ccc(Cl)cc1NC(=O)Cn1c(=O)n(CCC(=O)N2CCc3ccccc3C2)c(=O)c2ccccc21 -2.61%, CCOc1ccc2nc(N3CCCC(C(=O)NCCc4ccc(SC)cc4)C3)sc2c1 (centres undefined) 54.9%, CCN(c1ccc(C)cc1C)S(=O)(=O)c1nnc(NC(=O)CC(C)C)s1 6.08%, COc1cccc(C(=O)c2sc(Nc3ccc(F)c(Cl)c3)nc2N)c1 -20.6% [at 11.5 µM], Cn1c(=O)c2sccc2n2c(CCC(=O)Nc3ccc(F)cc3)nnc12 7.19%, C[C@@H]1CN(c2c(F)c(F)c3c(=O)c(C(=O)O)cn(C4CC4)c3c2F)C[C@H](C)N1 -2.47% [at 25.2 µM], Cc1ccc(C)c(NC(=O)CSc2nnc(C)n3c2cc2occc23)c1 0.734%, CCC1CCCCN1CCCNC(=O)c1ccc2c(c1)sc1nc(-c3ccc(F)cc3)cn12 (centres undefined) 2.53%, O=S(=O)(Nc1cccc(-c2ccc(N3CCOCC3)nn2)c1)c1cc(C(F)(F)F)ccc1Cl 5.7%, COC(=O)c1ccc(Cl)cc1NC(=O)Nc1nnc(N(C)Cc2ccccc2)s1 -12.7%, CCC(C(=O)OC)n1nnc2sc(-c3ccccc3)cc2c1=O (centres undefined) 8.75%, CCOC(=O)c1ccc(CN(Cc2ccc(Br)cc2)S(=O)(=O)c2cccc(C(F)(F)F)c2)cc1 2.35%, COc1ccc2c(c1)c(=O)c(C(=O)c1ccc(C)cc1)cn2Cc1ccccc1F -21.6%, Cc1ccc(N2C(=O)CS(=O)(=O)C23C(=O)N(Cc2ccccc2F)c2ccccc23)cc1Cl (centres undefined) -33.5%, O=C(COc1ccccc1Cl)Nc1ccccc1OCc1cc(=O)n2ccccc2n1 3.17%, O=C(CN1C(=O)C2CCCCN2c2ccc(C(=O)N3CCCC3)cc21)NCc1ccccc1F (centres undefined) -5.36%, CCCCN(CC)CCNc1ncnc2onc(-c3ccc(Cl)cc3)c12 -28.5%, CC(C)COc1ccc(Nc2ncnc3ccc(Br)cc23)cc1 -3.78%, COC(=O)c1sccc1S(=O)(=O)N(CC(=O)NCc1ccc(F)cc1)c1ccc(C)c(C)c1 -2.57%, Cc1cccc(NC(=O)NC2COc3ccccc3C2)c1C (centres undefined) 4.19%, CNS(=O)(=O)c1cn(CC(=O)Nc2cccc(C(F)(F)F)c2)cc1S(=O)(=O)NC 3.99%, Cc1ccc(CN(Cc2ccco2)C(=O)c2cccc(C)c2)cc1 -27.4%, CNS(=O)(=O)c1cn(CC(=O)N2CCN(c3ccc(C)cc3C)CC2)cc1S(=O)(=O)NC -1.54%, CCCCS(=N)(=O)CCC(N)C(=O)O (centres undefined) -9.79%, CCCNc1ccc(-c2nc(-c3ccco3)no2)cc1[N+](=O)[O-] 51.1%, Cc1cc(S(=O)(=O)n2ccnc2C(C)C)cc([N+](=O)[O-])c1C -15.9%, COc1ccc(C2Sc3ccccc3N(CCN(C)C)C(=O)C2OC(C)=O)cc1 (centres undefined) -5.89%, COc1ccc(CNc2nc(-c3ccco3)nn2C(=O)CC(C)C)cc1 47.8%, CCOC(=O)c1nc(Nc2ccc(Cl)cc2)c2c(C)noc2n1 -24.7%, O=C(Nc1cc(C(F)(F)F)ccc1Cl)c1ccc2c(c1)CCN2S(=O)(=O)c1ccccc1 -20.9%, CCC(C)(C)C(=O)O[C@H]1C[C@@H](C)C=C2C=C[C@H](C)[C@H](CC[C@@H]3C[C@@H](O)CC(=O)O3)[C@H]21, Cc1cc(C)c(Cn2c(=O)n(-c3ccccc3Cl)c(=O)c3c(C)c(C(=O)N(C)C)sc32)c(C)c1 7%, Cc1cn2c(=O)cc(COc3cccc(NC(=O)c4ccccc4Cl)c3)nc2s1 5.74%, COc1cccc(N2CC(NC(=O)C3CCCCC3)CC2=O)c1 (centres undefined) -16.9%, COc1ccc(C(=O)Nc2nnc(S(=O)(=O)N3CCN(c4ccc(C)cc4)CC3)s2)cc1 -5.84%, CC(Oc1ccccc1)C(=O)Nc1nnc(S(=O)(=O)N2CCCCCC2)s1 (centres undefined) -20.9%, Cc1ccccc1C(=O)Nc1cccc(-c2cn3cccnc3n2)c1 -9.35%, Cc1ccc(Oc2nc3c(c(=O)n(Cc4ccccc4Cl)c(=O)n3C)n2C)cc1C 0.182%, COc1ccc(-c2cc3nc(C)c(CCC(=O)Nc4ccc(F)cc4F)c(C)n3n2)c(OC)c1 -25.7%, CCOc1ccc(C(=O)Nc2ccc(C(=O)OCc3cc(=O)n4nc(CC)sc4n3)cc2)cc1 -18.7%, COC(=O)c1ccc(NC(=O)N2CCC(CN3CCc4ccccc4C3)CC2)cc1 -30.7%

Reference: PubChem BioAssay AID1508623 (National Center for Advancing Translational Sciences (NCATS), 2021)
